In patent publication US20030082175A1 (Biogen, published 2003):

Target: T1, FLAG-human APRIL (human, UniProt O75888 109-250)
T1 construct: Made from plasmid ps429 (p1448) in 293T cells; also called FLAG-hAPRIL; FLAG-h APRIL
T1 sequence: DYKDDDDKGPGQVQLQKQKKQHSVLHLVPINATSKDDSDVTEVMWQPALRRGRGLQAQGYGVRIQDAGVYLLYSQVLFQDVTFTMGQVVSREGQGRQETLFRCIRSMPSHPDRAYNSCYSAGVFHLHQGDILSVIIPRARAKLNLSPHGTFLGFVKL
Test: ELISA and immunoprecipitation (Example 2)
Procedure: ELISA analysis: Coated plates with receptor-Fc fusion proteins (hBCMA-Fc-739 or hTNFR2-Fc-492) at 1 ug/ml in carbonate pH 9.6, overnight, 4C. Blocked for 2 hours at room temperature using PBS/5% non fat dry milk/05% Tween-20. […] After incubation with ligands the plate was washed in PBS) 0.5% Tween-20 and probed with 0.5 ug/ml anti-FLAG mAb M2 in dilution buffer. The antibody was then detected using anti-mouse-PO 1/2000 with enzymatic development (OPD).
Immunoprecipitation experiments: 293T cells were transfected with indicated expression plasmid (Rec-Fc or flag ligand) in 9 cm plate. Transfected cells were left for 5d in 8 ml Optimem media (Gibco-BRL). Immunoprecipitation were performed by mixing 200 ul of each receptor-conditioned media with 200 ul of each ligand-conditioned media+400 ul PBS+10 ul ProtG-Sepharose. These were rotated 1 h on a wheel, washed 4× with 1 ml PBS, then boiled in 50 ul sample buffer (+DTT). 20 ul of each immunoprecipitation was loaded per lane. Reveal blotting was done with 1 ug/ml anti-FLAG M2 mAb (Sigma, St Louis Mo.) and anti-mouse PO (1/2000). A reprobe blot with anti-human-PO was also checked: 100 ul conditioned media was precipitated with MeOH/CHC13/lysozyme. This mix was boiled in 50 ul sample buffer (+DTT) and 20 ul was loaded. A Reveal blot was performed with anti-FLAG mAb M2 (1 ug/ml) and anti-mouse-PO (1/2000).

B1: human BCMA-hIgG Fc fusion protein (human APRIL-R-hIgGFc, pJST538) (Fc fusion)
chain: DVTMLQMAGQCSQNEYFDSLLHACIPCQLRCSSNTPPLTCQRYCNASVTNSVKGV[human IgG1 Fc omitted]
notes: also called hBCMA-Fc; hBMCA-Fc
  binding result: binds
